# Results as given in article PMC4336329 (PLoS ONE, 2015).
# Screen size: about 310,000 compounds; about 14,000 (4.5%) showed an effect of 50% or more. Effects have a minus sign here. This is one part of the list.
# Molecular target: human ether-à-go-go-related gene (hERG) potassium channel (human, UniProt Q12809)
# Assay: primary screen, population patch clamp on CHO cells stably expressing hERG
# 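Also: peak tail current of the secondary pulse compared with the same well before compound.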
# human ether-à-go-go-related gene (hERG) potassium channel, sequence (Q12809 whole entry, looked up): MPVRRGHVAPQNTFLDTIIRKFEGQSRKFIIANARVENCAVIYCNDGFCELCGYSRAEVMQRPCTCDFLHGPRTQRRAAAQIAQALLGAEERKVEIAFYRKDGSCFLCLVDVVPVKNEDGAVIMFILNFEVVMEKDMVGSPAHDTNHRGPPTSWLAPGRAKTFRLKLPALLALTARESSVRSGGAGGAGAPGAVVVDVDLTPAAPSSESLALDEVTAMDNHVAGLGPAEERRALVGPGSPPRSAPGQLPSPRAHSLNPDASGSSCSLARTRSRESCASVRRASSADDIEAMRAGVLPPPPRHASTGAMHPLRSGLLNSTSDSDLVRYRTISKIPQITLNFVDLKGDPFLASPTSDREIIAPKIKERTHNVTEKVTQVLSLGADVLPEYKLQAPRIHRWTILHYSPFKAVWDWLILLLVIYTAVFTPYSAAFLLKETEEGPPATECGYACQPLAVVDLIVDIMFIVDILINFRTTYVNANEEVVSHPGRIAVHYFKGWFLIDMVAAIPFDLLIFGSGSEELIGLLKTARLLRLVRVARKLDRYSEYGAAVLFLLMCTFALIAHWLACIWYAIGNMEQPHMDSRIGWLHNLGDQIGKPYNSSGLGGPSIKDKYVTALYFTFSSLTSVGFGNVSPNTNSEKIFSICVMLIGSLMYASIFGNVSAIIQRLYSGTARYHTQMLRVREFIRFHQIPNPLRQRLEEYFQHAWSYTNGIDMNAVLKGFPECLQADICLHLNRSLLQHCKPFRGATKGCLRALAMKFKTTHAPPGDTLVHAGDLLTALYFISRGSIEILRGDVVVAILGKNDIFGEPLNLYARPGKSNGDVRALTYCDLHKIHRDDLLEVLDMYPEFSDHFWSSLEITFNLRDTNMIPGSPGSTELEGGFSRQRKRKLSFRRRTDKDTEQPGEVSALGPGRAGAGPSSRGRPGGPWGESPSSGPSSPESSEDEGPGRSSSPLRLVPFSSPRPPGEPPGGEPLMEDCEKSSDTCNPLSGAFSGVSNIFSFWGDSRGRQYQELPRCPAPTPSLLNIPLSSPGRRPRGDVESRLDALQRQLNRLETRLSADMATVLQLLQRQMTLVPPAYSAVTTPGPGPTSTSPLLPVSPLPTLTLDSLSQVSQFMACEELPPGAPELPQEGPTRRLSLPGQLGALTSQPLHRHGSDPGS
row,SMILES,"hERG current change (%, negative = inhibition) at 10uM"
1,CCOC(=O)c1nnn(-c2nonc2OC)c1-c1ccccc1,-5.93%
2,O=C(CN1C(=O)NC(c2ccccc2)(c2ccccc2)C1=O)NCc1cccs1,5.95%
3,CC(C)CCNC(=S)Nc1ccccn1,-5.33%
4,Cc1nn(Cc2nnc(SCC(=O)Nc3ccc(Cl)cc3)n2C)c(C)c1[N+](=O)[O-],-22.9%
5,Cc1cc2ncn(-c3nnnn3-c3ccccc3)c2cc1C,-10.1%
6,CCN(CC)c1ccc(S(=O)(=O)N2CCOCC2)cc1NC(=O)CSc1nncs1,-34.9%
7,COc1cc(N2C(=O)c3ccccc3C2=O)c(Cl)cc1C(=O)OCC(=O)N(C)C,-28.5%
8,C#CCSc1nnnn1-c1ccc(Br)c(C)c1,0.768%
9,COc1ccc(C(=O)COC(=O)C(CCSC)NC(=O)COc2ccccc2)c(OC)c1 (stereo not shown),-5.38%
10,Cc1cccc(Cn2c(=O)n(CCCC(=O)NCc3ccco3)c(=O)c3ccccc32)c1,-43.4%
11,O=c1c2ccccc2nc2n1C(CSc1ccc(F)cc1)CS2 (stereo not shown),-33.3%
12,CCCCOC(=O)c1ccc(Nc2ccc([N+](=O)[O-])cn2)cc1,14.5%
13,O=C(CCCCCBr)N1CCC(CC2CC(c3cccc(Br)c3)=NO2)(C(=O)NCC2CCCCC2)CC1 (stereo not shown),-69%
14,CCCCCCc1c(C)c2ccc(OCC(=O)N3CCC[C@H]3C(=O)O)c(C)c2oc1=O,8.28%
15,COC(=O)/C=c1/s/c(=C(\C#N)C(=O)NCc2ccco2)n(-c2ccccc2)c1=O,15.9%
16,CCc1nnc(NC(=O)CSc2nnc(C3CCCCC3)n2-c2ccccc2)s1,-18.9%
17,O=C1C=C(c2cc(Cl)cc(Cl)c2)C[C@@H](c2ccc3c(c2)OCO3)C1,-2.33%
18,N#Cc1cc(N)c(Nc2ccccc2)cc1C#N,1.68%
19,CCOC(=O)c1ccc(NC(=O)N2C3CCCC2CC(NC(C)=O)C3)cc1 (stereo not shown),-11.6%
20,COc1ccc(OC)c(CCNC(=O)CS(=O)(=O)Cc2nc(-c3ccc(C)cc3)oc2C)c1,-20.1%
21,COc1ccc(CCN2C(=O)c3cccc4c(C(=O)N5CCCCC5)ccc(c34)C2=O)cc1OC,3.8%
22,CC1CCN(S(=O)(=O)N2CCC(C(=O)NCCC3=CCCCC3)CC2)CC1,47%

row,SMILES,"hERG current change (%, negative = inhibition) at 10uM"
1,Cc1nc(SCC(=O)N2CCN(c3ccccc3)CC2)n[nH]1,19%
2,CC(C)(C)c1cc[n+](C2=C([O-])c3ccccc3C(=O)/C2=N\S(=O)(=O)c2ccccc2)cc1,-31.9%
3,CCC(C)c1c(O)nc(SCC(=O)N2CCCCC2)[nH]c1=O (stereo not shown),21.3%
4,Cc1cc2ncn(CCC(=O)NC(C)(C)C)c2cc1C,2.63%
5,COc1ccc2oc(=O)c(C(=O)Nc3ccccc3C)cc2c1,9.87%
6,O=C(/C=C/Nc1cccc(C(F)(F)F)c1)C(F)(F)F,-7.61%
7,O=C(C1CCN(Cc2ccc(F)cc2)CC1)N(CCO)Cc1ccccc1,-10.6%
8,Cc1cc(/C=N/NC(=O)c2ccc(O)cc2)c(C)n1C1CC1,20.4%
9,CN1CCN(C(=O)c2ccccc2NC(=O)Cc2ccccc2)CC1,5.33%
10,CCOc1ccc(N/C=C/C(=O)c2ccc(OC)cc2)c([N+](=O)[O-])c1,24.5%
11,O=[N+]([O-])c1ccc(N2CCN(c3ccc(Cl)nn3)CC2)c(Cl)c1,-23.7%
12,CCCC(=O)NNC(=O)CCC(=O)Nc1ccccc1Cl,18.4%
13,Cc1[nH]c2ccccc2c1/C=N/Nc1nc(N2CCCCC2)nc(N2CCCCC2)n1,7.43%
14,O=C(CSc1ncccn1)NC(=O)c1ccccc1,3.87%
15,O=C(COC(=O)c1ccc(S(=O)(=O)N2CCCCC2)cc1)Nc1ccccc1,15.8%
16,CCN(CC(=O)Nc1c(F)cccc1F)C(=O)C1(c2ccccc2)CC1,-14.6%
17,Cc1cc(C)c(OCC(=O)NCCCn2nc(C)cc2C)c(C)c1,-22.6%
18,Cc1ccc2nc(N3CC(=O)Nc4ccccc43)nc(-c3ccccc3)c2c1,11.1%
19,c1ccc(-c2ccccn2)nc1,1.05%
20,COc1ccc(CCNC(=O)c2cc(S(=O)(=O)N3CCC4(CC3)OCCO4)ccc2F)cc1OC,-3.9%
21,COc1ccc(C(C)=O)cc1CSc1nc2nc(C)cc(C)n2n1,-7.3%
